# Measured values published in PubChem BioAssay AID651820 (National Center for Advancing Translational Sciences (NCATS), 2012).
# About 12,000 (3.5%) of roughly 340,000 compounds were called active. Inconclusive results, whose numbers are uncertain, are shown with a selection of clear calls. Calls follow the shape of the dose curve; as a rule, active = well fitted inhibition curve with a large enough effect; inconclusive = small, poorly fitted or top-dose-only effect, or another doubt; inactive = no such curve, though single readings can be large or run the other way. No potency is given beside an inconclusive call; the fits are too rough.
# Experiment: qHTS Assay for Inhibitors of Hepatitis C Virus (HCV)
# Details: Huh7.5.1 HCVcc-Cre (HCVcc is cell-culture hepatitis C virus) infection, luciferase reporter, 44 h; series mostly up to 41.8 µM
# In short: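 After 44 h co-culture of compound, cells and HCVcc-Cre (~0.5 moi), substrate is added for 15 min at room temperature and luciferase measured over 15 sec. Cells were seeded at 1,000/well and pre-cultured 4 h.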
# Potency is read from the fitted curve at half-maximal effect; tags tell the direction and shape of the fitted curve.
row,Compound,Potency
1,Cc1ccc(OCC(=O)Nc2cc(-c3nn4c(C)nnc4s3)ccc2C)cc1,inactive
2,CCc1ccc(NC(=O)C2CCN(S(=O)(=O)c3cnc[nH]3)CC2)cc1,inactive
3,CN(C)CCNC(=O)C(=O)NCC(c1ccc2c(c1)OCO2)N1CCN(c2ccc(F)cc2)CC1 (centres undefined),"inconclusive [inhibitor, single point]"
4,COCCNc1c2c(nc3c(-c4ccccc4)c(C)nn13)CCCC2,"inconclusive [inhibitor, partial curve]"
5,COc1ccccc1Nc1ncnc2c1cnn2-c1cccc(C)c1,"inconclusive [inhibitor, partial curve]"
6,COc1cccc(-n2nnnc2SCC(=O)Nc2ccccc2OC)c1,"inconclusive [inhibitor, single point]"
7,COc1cccc(-c2nnc(SCC(=O)N3CCOCC3)o2)c1,inactive
8,Oc1ccc2c3c1OC1c4oc5ccccc5c4C[C@@]4(O)[C@@H](C2)N(CC2CC2)CC[C@]314 (some centres undefined),inactive
9,CCOC(=O)CN1C(=O)C(Sc2n[nH]c(-c3ccccc3)n2)CCc2ccccc21 (centres undefined),"inconclusive [inhibitor, partial curve]"
10,COc1ccc(CC(=O)NCC2CCCN(Cc3cccc(C(F)(F)F)c3)C2)cc1 (centres undefined),inactive
11,NC(=O)c1sc2nc3c(c(-c4ccccc4)c2c1N)CCC3,"inconclusive [inhibitor, single point]"
12,Cc1cc(OCCCCCn2ccnc2)cc(C)c1Cl,"inconclusive [inhibitor, single point]"
13,CC(C)NC1(C(N)=O)CCN(Cc2ccccc2)CC1,inactive
14,COc1ccc(C(=O)N[C@H](C(=O)Nc2nc3ccccc3[nH]2)C(C)C)cc1,active: 7.08 µM
15,O=[N+]([O-])c1cc2c(cc1/C=N/n1c(-c3ccccc3)n[nH]c1=S)OCO2,inactive
16,CN(CC(=O)NNC(=O)Cc1ccccc1F)S(=O)(=O)c1ccc(Cl)cc1,inactive
17,CCc1ccc(NC(=O)COc2coc(CN3CCc4ccccc4C3)cc2=O)cc1,"inconclusive [inhibitor, single point]"
18,CC1=C(Cl)C2=NS(=O)(=O)CCN2C=C1Cl,"inconclusive [inhibitor, single point]"
19,CCOc1ccc(-n2c(N)c(C(=O)NCc3ccco3)c3nc4ccccc4nc32)cc1,"inconclusive [inhibitor, single point]"
20,O=C(Nc1ccc(N2CCOCC2)c(Cl)c1)C1CCCCC1,"inconclusive [inhibitor, partial curve, poor fit]"
21,Cc1cc(C)c2c(n1)nn1c(NCCN3CCOCC3)cc(C)nc21,inactive
22,Cc1ccc(NC(=O)CCC(=O)NNC(=O)c2ccco2)c(C)c1,inactive
23,COc1cccc(C(=O)Nc2ccccc2C(=O)N2CCCC2)c1,inactive
24,O=C(Cc1coc2ccc3ccccc3c12)NCc1cccs1,"inconclusive [inhibitor, single point]"
25,COc1ccc(NS(=O)(=O)c2cc(NC(=O)c3ccc(Cl)cc3)ccc2N2CCOCC2)cc1,active: 7.94 µM

row,Compound,Potency
1,CCN1C(=O)[C@H]2[C@@H](c3ccc(C)cc3)N3C(=O)N(c4cccc(Br)c4)C(=O)[C@@]3(CC)[C@H]2C1=O,inactive
2,COc1ccc(NC(=O)c2cc3ccccc3cc2OC)cc1OC,active: 11.2 µM
3,COc1ccc(C)cc1C1=Nc2ccccc2C1(C)C,inactive
4,COC(=O)CSC1=C(C#N)C(c2ccsc2)CC(=O)N1 (centres undefined),"inconclusive [inhibitor, single point]"
5,COc1ccc(S(=O)(=O)NCC(c2cccnc2)N2CCN(c3ccccc3)CC2)cc1C (centres undefined),"inconclusive [inhibitor, partial curve, poor fit]"
6,O=C1C=C(c2cccc(Cl)c2)C[C@@H](c2ccc(F)cc2)C1,inactive
7,CCCNC(=O)NNC(=O)c1cc(-c2ccc3c(c2)OCO3)nc2ccccc12,"inconclusive [inhibitor, single point]"
8,CCN1C(=O)c2ccccc2S(=O)c2ccc(C(=O)NCc3ccc(OC)cc3)cc21 (centres undefined),"inconclusive [inhibitor, partial curve]"
9,Cc1cc(C(=O)Nc2ccc(Nc3ccccc3)cc2)ccc1[N+](=O)[O-],active: 11.2 µM
10,OC(C#CCN1CCCCC1)(c1ccccc1)c1ccccc1,"inconclusive [inhibitor, single point]"
11,O=C(NC(NC(=S)N1CCOCC1)C(Cl)(Cl)Cl)c1cccc2ccccc12 (centres undefined),"inconclusive [inhibitor, partial curve]"
12,CCOc1ccc(-c2cc(C(=O)N3CCC4(CC3)OCCO4)c3ccccc3n2)cc1,inactive
13,O=C(Nc1ccccc1F)Nc1ccccc1Br,inactive
14,COc1ccc(Nc2cc(C)nc3ncnn23)cc1Cl,inactive
15,N#Cc1cc(C(=O)Cc2ccccc2)c[nH]1,"inconclusive [inhibitor, single point]"
16,c1ccc(OCc2nc3c4c(ncn3n2)-c2ccccc2CC42CCCC2)cc1,"inconclusive [inhibitor, single point]"
17,CCOC(=O)C1=C(COC(=O)/C=C/c2ccc(OC)c(OC)c2)NC(=O)NC1C (centres undefined),"inconclusive [inhibitor, full curve]"
18,O=C(NCc1ccccc1)c1ccc(-c2ccc(F)cc2)o1,"inconclusive [inhibitor, single point]"
19,N#Cc1c(-c2ccccc2)ccn(Cc2ccccc2Cl)c1=O,inactive
20,CC(C)(C)c1cc(N2CCOCC2)n2ncc(-c3ccc(Cl)cc3)c2n1,"inconclusive [inhibitor, partial curve]"
21,O=C(Nn1c(O)c(C=C2N=c3ccccc3=N2)sc1=S)c1ccc(Cl)cc1,"inconclusive [inhibitor, single point]"
22,COc1ccc(CCNC(=O)COC(=O)c2cc(S(=O)(=O)N3CCOCC3)ccc2C)cc1OC,inactive
23,Cn1ncnc2c(=O)n(C)c(=O)nc1-2,active: 0.501 µM
24,Cc1ccc(C)c(S(=O)(=O)N2CCN(C(=O)c3cncc(Br)c3)CC2)c1,inactive
25,C[C@@H](NC(=O)Cn1ccc(NC(=O)OCc2ccccc2)nc1=O)c1cccc2ccccc12,"inconclusive [inhibitor, partial curve]"

row,Compound,Potency
1,CC(=O)c1c(C)[nH]c(C(=O)CN(C)CC(=O)Nc2ccccc2Cl)c1C,"inconclusive [inhibitor, partial curve]"
2,Cc1ccc(O)c(NC(=O)Cc2ccc3ccccc3c2)c1,"inconclusive [inhibitor, full curve]"
3,Cc1cc(/C=C2\SC(=S)NC2=O)c(C)n1C,inactive
4,Cc1ccc(-c2cnc(C3CC3)o2)cc1S(=O)(=O)Nc1ccccc1,"inconclusive [inhibitor, single point]"
5,FC(F)(F)c1ccc(NC(=S)NC2CCCCC2)cc1,"inconclusive [inhibitor, single point]"
6,CC(c1ccccc1)N1CCn2c(nc3cc(NC(=O)NC4CCCCC4)ccc32)C1 (centres undefined),"inconclusive [inhibitor, partial curve]"
7,Nc1ccc(C(=O)N/N=C/c2cn(Cc3ccccc3)c3ccccc23)cc1,inactive
8,COc1ccc(CNC(=O)CCC(=O)N2CCN(S(=O)(=O)c3ccc(Cl)cc3)CC2)cc1,inactive
9,Cc1cccc(C)c1NC(=O)COC(=O)c1c(C)nn(-c2ccccc2)c1C,inactive
10,CCOC(=O)c1[nH]c(C)c(C(=O)NCC2CCCO2)c1C (centres undefined),inactive
11,Cc1ccc2nc3n(c2c1)CCCN3,"inconclusive [inhibitor, partial curve]"
12,COc1ccc(Cl)cc1NC(=O)CN(C)CC(=O)Nc1cccc(S(=O)(=O)N2CCCC2)c1,"inconclusive [inhibitor, single point]"
13,CCn1cc(C(=O)OCC(=O)NCc2ccc3c(c2)OCO3)c(=O)c2ccc(C)nc21,"inconclusive [inhibitor, partial curve]"
14,Cc1cc(C)cc(N(CC(=O)NCc2ccc(F)cc2)C(=O)CCC(=O)Nc2ccccn2)c1,inactive
15,Cc1ccc(-c2c(C#N)c(N)n3c(nc4ccccc43)c2C#N)cc1,"inconclusive [inhibitor, partial curve]"
16,COc1ccc(-n2c(=O)c(CCC(=O)N(C)Cc3ccccc3C)nc3ccccc32)cc1,"inconclusive [inhibitor, single point]"
17,COc1cc(/C=C2\SC(=S)N(CCC(=O)NC3CCCC3)C2=O)cc(OC)c1OC,"inconclusive [inhibitor, single point]"
18,Clc1ccc(-c2nc3cnccn3c2Nc2ccc3c(c2)OCO3)cc1,"inconclusive [inhibitor, partial curve]"
19,FCCCOc1ccc(-c2ccnc(-c3ccccc3)n2)cc1,"inconclusive [inhibitor, partial curve, poor fit]"
20,COc1cc(NS(=O)(=O)c2ccc(NC(=S)NC(=O)/C=C/c3ccco3)cc2)ncn1,inactive
21,Cc1ccc(C)c(OCC(=O)Nc2cccc(S(=O)(=O)NC3=NCCCCC3)c2)c1,inactive
22,COc1ccccc1C1CCCN1Cc1nc(-c2cc3c(cc2Cl)OCO3)oc1C (centres undefined),inactive
23,COc1ccc(CN(C(=O)c2snc(C(N)=O)c2N)C(C(=O)NC2CCCC2)c2cc(OC)ccc2OC)cc1 (centres undefined),inactive
24,Cc1nc2cc(-c3ccc(Cl)cc3)nn2c(C)c1CCC(=O)NC(C)c1ccc2c(c1)OCCO2 (centres undefined),"inconclusive [inhibitor, partial curve]"
